The record followed here is paper PMC8993864.

The chains behind the UniProt entries cited, without tags or fusion partners. Where a name states a change or a piece, a line headed by the entry shows the natural chain unless it says otherwise.
UniProt Q96KN1: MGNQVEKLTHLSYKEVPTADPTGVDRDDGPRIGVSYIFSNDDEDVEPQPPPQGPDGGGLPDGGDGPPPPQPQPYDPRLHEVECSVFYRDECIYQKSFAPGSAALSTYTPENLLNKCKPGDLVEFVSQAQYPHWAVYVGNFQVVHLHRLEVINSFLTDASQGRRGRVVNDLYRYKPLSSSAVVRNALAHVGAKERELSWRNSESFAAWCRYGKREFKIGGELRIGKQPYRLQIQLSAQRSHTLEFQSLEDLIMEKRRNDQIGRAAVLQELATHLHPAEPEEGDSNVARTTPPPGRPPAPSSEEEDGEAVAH
UniProt P06748: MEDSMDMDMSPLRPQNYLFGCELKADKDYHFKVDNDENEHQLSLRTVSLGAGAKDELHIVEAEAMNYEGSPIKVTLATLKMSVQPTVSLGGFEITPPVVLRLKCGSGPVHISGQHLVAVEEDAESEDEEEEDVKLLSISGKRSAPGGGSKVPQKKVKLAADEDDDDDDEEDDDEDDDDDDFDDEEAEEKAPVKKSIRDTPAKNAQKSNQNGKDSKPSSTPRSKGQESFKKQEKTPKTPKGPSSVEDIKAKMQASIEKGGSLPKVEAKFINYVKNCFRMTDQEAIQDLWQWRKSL
UniProt P42771: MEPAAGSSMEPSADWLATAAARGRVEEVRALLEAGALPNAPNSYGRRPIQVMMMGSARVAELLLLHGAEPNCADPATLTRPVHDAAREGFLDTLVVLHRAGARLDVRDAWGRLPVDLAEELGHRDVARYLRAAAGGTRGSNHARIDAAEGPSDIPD

Experiment [1] has as its target FLAG-FAM84B (pCMV-FLAG-FAM84B) (UniProt Q96KN1). Description: co-IP; exogenous (transfected) FLAG-FAM84B with HA-tagged NPM1 full length or deletion mutants; 1 mg lysate protein with antibody and Protein A/G plus-agarose overnight at 4 °C; IP anti-FLAG, blot anti-HA; anti-IgG as negative control.
Experiment [2] has as its target FAM84B, endogenous (human (endogenous in the paper's cell lines; line not stated)) (UniProt Q96KN1). The experiment in a line: co-IP; endogenous proteins; 1 mg lysate protein with antibody and Protein A/G plus-agarose overnight at 4 °C; IP anti-FAM84B, blot anti-NPM1; anti-IgG as negative control.
The target of experiment [3] is FAM84B of the co-IP with CDKN2A (Fig. 6A) (UniProt Q96KN1). Description: co-IP; CDKN2A with FAM84B and with NPM1 in cells; cell line, antibodies of the IP and whether endogenous or transfected not stated.
Experiment [4] concerns the target NPM1 of the co-IP with CDKN2A (Fig. 6B) (UniProt P06748). Described as above.
Experiment [5] addresses GST-FAM84B-FL (pGEX-5X-1) (UniProt Q96KN1). The experiment in a line: pull-down; 50 µg purified GST fusion protein immobilised on 20 µl GSH-sepharose, PBS-T binding buffer (PBS, pH 7.4, 1% Tween 20); incubated overnight at 4 °C with 5 µg NPM1 product (in vitro translation; pCMV-NPM1-HA transfected, 293 T cells); blots anti-GST, anti-HA; only the target purified.

These are yes or no findings as the source states them, for the method shown. Binding seen in cells or lysates may run through a third protein. Some binding calls cover weakened binding; strength is not graded here.

With “HA-tagged NPM1-118-294aa (from UniProt P06748 118-294) (domain or fragment)”, the binding result in experiment [1] is on record as “binds”.
On to “NPM1, endogenous (from UniProt P06748 1-294)”, for which the binding entry in experiment [2] is “binds”.
Regarding CDKN2A (from UniProt P42771 1-156), the binding entry in experiment [3] and in experiment [4] was “binds” each time.
In the case of “HA-tagged NPM1-118-188aa (from UniProt P06748 118-188) (domain or fragment)”, the binding result in experiment [1] was “no binding”.
For “NPM1-HA (pCMV-NPM1-HA) of the GST pull-down (from UniProt P06748 1-294)”, the binding result in experiment [5] was “binds”.
Take “HA-tagged NPM1-1-188aa (from UniProt P06748 1-188) (domain or fragment)”: in experiment [1], the binding result was “no binding”.
Still for that read-out and setting: in the case of “HA-tagged NPM1-1-117aa (from UniProt P06748 1-117) (domain or fragment)” it was “no binding”.
Same read-out and setting: the result for “HA-tagged NPM1 full length (NPM1-FL) (from UniProt P06748 1-294)” reads “binds”.
